{"source": "paper PMC4336329", "about": "(PLoS ONE, 2015)", "note": "The campaign covered roughly 310,000 compounds. About 2,200 (0.71%) showed an effect of 50% or more. Effects have a minus sign here. This is one part of the list.", "data": [{"target": "human ether-à-go-go-related gene (hERG) potassium channel (human, UniProt Q12809)", "sequence (Q12809 whole entry, looked up)": "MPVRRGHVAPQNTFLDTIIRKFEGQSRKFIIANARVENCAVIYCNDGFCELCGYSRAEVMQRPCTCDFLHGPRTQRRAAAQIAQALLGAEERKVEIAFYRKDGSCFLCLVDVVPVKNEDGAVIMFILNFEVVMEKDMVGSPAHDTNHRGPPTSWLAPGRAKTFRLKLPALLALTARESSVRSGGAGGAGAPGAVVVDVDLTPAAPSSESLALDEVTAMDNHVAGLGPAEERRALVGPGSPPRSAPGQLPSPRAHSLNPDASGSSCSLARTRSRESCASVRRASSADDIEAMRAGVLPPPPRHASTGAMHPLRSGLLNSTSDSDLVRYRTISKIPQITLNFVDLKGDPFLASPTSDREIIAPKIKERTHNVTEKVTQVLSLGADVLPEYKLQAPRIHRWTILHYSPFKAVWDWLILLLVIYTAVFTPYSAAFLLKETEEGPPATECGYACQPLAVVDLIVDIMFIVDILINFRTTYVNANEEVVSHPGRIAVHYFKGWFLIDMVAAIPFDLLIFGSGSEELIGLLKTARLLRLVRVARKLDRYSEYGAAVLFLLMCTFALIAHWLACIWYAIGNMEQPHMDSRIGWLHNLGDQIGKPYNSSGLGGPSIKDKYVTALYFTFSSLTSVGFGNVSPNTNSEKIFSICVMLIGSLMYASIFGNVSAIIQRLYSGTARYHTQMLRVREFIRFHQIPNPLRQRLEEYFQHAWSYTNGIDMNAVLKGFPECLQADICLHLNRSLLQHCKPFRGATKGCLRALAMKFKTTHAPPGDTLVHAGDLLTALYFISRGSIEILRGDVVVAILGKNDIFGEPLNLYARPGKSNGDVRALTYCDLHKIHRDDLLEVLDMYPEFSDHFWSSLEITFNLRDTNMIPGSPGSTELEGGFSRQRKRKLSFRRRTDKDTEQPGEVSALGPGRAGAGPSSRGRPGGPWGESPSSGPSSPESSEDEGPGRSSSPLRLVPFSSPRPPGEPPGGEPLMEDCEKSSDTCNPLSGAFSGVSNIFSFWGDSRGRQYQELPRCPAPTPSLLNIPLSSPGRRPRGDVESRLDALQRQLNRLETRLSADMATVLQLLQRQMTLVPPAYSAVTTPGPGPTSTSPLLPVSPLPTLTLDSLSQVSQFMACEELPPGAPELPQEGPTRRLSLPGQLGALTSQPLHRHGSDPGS", "test": "primary screen, population patch clamp on CHO cells stably expressing hERG", "units": {"hERG current change (%, negative = inhibition) at 1uM": "%"}, "values": [{"compound": "NS(=O)(=O)c1ccc(CCNC(=O)CSCC(=O)Nc2ccc(Cl)cc2)cc1", "hERG current change (%, negative = inhibition) at 1uM": 14.6}, {"compound": "CCNS(=O)(=O)c1ccc(CCC(=O)Nc2ccc3c(c2)OCCO3)cc1", "hERG current change (%, negative = inhibition) at 1uM": 23}, {"compound": "COCc1nnc(NC(=O)c2ccc(S(=O)(=O)N(C)Cc3ccccc3)cc2)o1", "hERG current change (%, negative = inhibition) at 1uM": 18.4}, {"compound": "CCOC(=O)CSc1nc(N2CCOCC2)c2c(c1C#N)CC(C(C)C)OC2", "note": "(centres unmarked)", "hERG current change (%, negative = inhibition) at 1uM": -31.3}, {"compound": "C=C1C(O)C[C@H]2C(=C)CCC3[C@H](OC(=O)[C@]3(O)CO)[C@@H]12", "note": "(some centres unmarked)", "hERG current change (%, negative = inhibition) at 1uM": 22.6}, {"compound": "CCn1c(C)nc([N+](=O)[O-])c1C(=O)O", "hERG current change (%, negative = inhibition) at 1uM": 7.93}, {"compound": "Cc1nn(S(=O)(=O)c2ccc(Br)cc2)c(C)c1S(=O)(=O)N1CCOCC1", "hERG current change (%, negative = inhibition) at 1uM": 6.19}, {"compound": "COc1ccc(C(=O)COC(=O)CCNS(=O)(=O)c2ccccc2)c(OC)c1", "hERG current change (%, negative = inhibition) at 1uM": -0.37}, {"compound": "CCCS(=O)(=O)N1CCCC(C(=O)NCCN(Cc2ccccc2)C(C)C)C1", "note": "(centres unmarked)", "hERG current change (%, negative = inhibition) at 1uM": -5.65}, {"compound": "COc1ccc(N2CCN(S(=O)(=O)c3cc(Br)cnc3N)CC2)cc1", "hERG current change (%, negative = inhibition) at 1uM": 17.7}, {"compound": "CC(=O)Nc1nnc(SCC(=O)Nc2ccc(N3CCOCC3)c(Cl)c2)s1", "hERG current change (%, negative = inhibition) at 1uM": 9.99}, {"compound": "CC(=O)Nc1ccc2nc(-c3cccs3)[nH]c2c1", "hERG current change (%, negative = inhibition) at 1uM": 11.4}, {"compound": "CCN(CC)S(=O)(=O)c1ccc2c3c(cccc13)C(=O)S2", "hERG current change (%, negative = inhibition) at 1uM": -18.3}, {"compound": "CCCCN1C(=O)C(O)=C(C(C)=O)C1c1ccccc1", "note": "(centres unmarked)", "hERG current change (%, negative = inhibition) at 1uM": 14.8}, {"compound": "CCn1c2ccccc2c2nc3cc(OC)c(OC)cc3nc21", "hERG current change (%, negative = inhibition) at 1uM": 13.1}, {"compound": "Cc1cc(C)nc(Nc2ccc(O)cc2)n1", "hERG current change (%, negative = inhibition) at 1uM": -1.88}, {"compound": "O=C(Nc1cccc(Cl)c1N1CCOCC1)c1ccc([N+](=O)[O-])o1", "hERG current change (%, negative = inhibition) at 1uM": 3.63}, {"compound": "O=C(NCCCN1CCOCC1)[C@@H]1CSC2c3ccccc3C(=O)N21", "note": "(some centres unmarked)", "hERG current change (%, negative = inhibition) at 1uM": 6.76}, {"compound": "Cc1ccc(C(=O)N2CCNC(=O)C2CC(=O)Nc2ccccc2)cc1", "note": "(centres unmarked)", "hERG current change (%, negative = inhibition) at 1uM": 13.4}, {"compound": "C=CCn1c(SCC(=O)Nc2nccs2)nnc1-c1cc2cccc(OC)c2o1", "hERG current change (%, negative = inhibition) at 1uM": 5.69}, {"compound": "CSc1ncccc1C(=O)OCC(=O)C(C)(C)C", "hERG current change (%, negative = inhibition) at 1uM": 5.07}, {"compound": "CCN(CC)C(=O)c1ccc(Nc2nnc(C)c3ccccc23)cc1", "hERG current change (%, negative = inhibition) at 1uM": 2.07}, {"compound": "CC(C)(C)OC(=O)NCCCC[C@@H](C(=O)N1CCN(C(=O)OC(C)(C)C)CC1)n1cc(C(CO)NC(=O)OC(C)(C)C)nn1", "note": "(some centres unmarked)", "hERG current change (%, negative = inhibition) at 1uM": 21}, {"compound": "O=c1cc(C2CCNCC2)[nH][nH]1", "hERG current change (%, negative = inhibition) at 1uM": 3.78}, {"compound": "Cc1nc2ccccc2c(=O)n1-c1ccccn1", "hERG current change (%, negative = inhibition) at 1uM": 12.6}, {"compound": "COc1cc(NC(=O)CN(C)S(=O)(=O)c2ccc(-c3ccc(=O)[nH]n3)s2)cc(OC)c1", "hERG current change (%, negative = inhibition) at 1uM": 3.04}, {"compound": "O=C(O)C1=C[C@H](c2ccc3c(c2)OCO3)C[C@H](OCc2ccc(CO)cc2)O1", "hERG current change (%, negative = inhibition) at 1uM": 9.9}, {"compound": "O=C1C2CC=CCC2C(=O)N1c1ccc(NCCc2cccc(F)c2)c([N+](=O)[O-])c1", "note": "(centres unmarked)", "hERG current change (%, negative = inhibition) at 1uM": 6.69}, {"compound": "c1ccc(CN(Cc2ccccc2)c2nn[nH]n2)cc1", "hERG current change (%, negative = inhibition) at 1uM": 6.98}, {"compound": "O=C(CSc1ccc2nnc(CCNS(=O)(=O)c3ccccc3)n2n1)Nc1nc2ccccc2s1", "hERG current change (%, negative = inhibition) at 1uM": 10.5}, {"compound": "CCCc1nc2nc(C)c(NS(=O)(=O)c3ccc(C(C)(C)C)cc3)c(=O)n2[nH]1", "hERG current change (%, negative = inhibition) at 1uM": 9.98}, {"compound": "Cc1ccc(/C=N/NC(=O)c2cc(-c3cccnc3)nc3ccccc23)cc1", "hERG current change (%, negative = inhibition) at 1uM": 12.8}, {"compound": "Cc1ccc2[nH]cc(C(=O)CN3CCN(c4ccccn4)CC3)c2c1", "hERG current change (%, negative = inhibition) at 1uM": 3.06}, {"compound": "O=C(Nc1cccc2ccccc12)C1CCCC1", "hERG current change (%, negative = inhibition) at 1uM": 9.47}, {"compound": "O=[N+]([O-])c1ccc(CSc2ccccn2)cc1", "hERG current change (%, negative = inhibition) at 1uM": 8.1}, {"compound": "CCOC(=O)N1CCN(CCC(=O)Nc2ccc(C)c(Br)c2)CC1.Cl", "hERG current change (%, negative = inhibition) at 1uM": -14.5}, {"compound": "CC1=C(C#N)c2nc(N)c(C#N)c(C)c2/C1=C\\c1ccc(C)cc1", "hERG current change (%, negative = inhibition) at 1uM": 11.6}, {"compound": "CCOC(=O)C(C)(C)n1nnc(-c2ccc([N+](=O)[O-])cc2)n1", "hERG current change (%, negative = inhibition) at 1uM": 3.19}, {"compound": "COc1ccccc1Oc1nc2ccccn2c(=O)c1/C=C(\\C#N)C(=O)Nc1c(C)n(C)n(-c2ccccc2)c1=O", "hERG current change (%, negative = inhibition) at 1uM": 12.1}, {"compound": "Cc1nc(C(N)=O)nc2ccccc12", "hERG current change (%, negative = inhibition) at 1uM": 8.56}, {"compound": "O=C(CSc1ncn[nH]1)N/N=C/c1ccc(Br)cc1", "hERG current change (%, negative = inhibition) at 1uM": 10.5}, {"compound": "CCNCC(=O)N1c2ccccc2CCc2ccc(NC(=O)OCC)cc21", "hERG current change (%, negative = inhibition) at 1uM": 9.88}, {"compound": "COc1ccc(C(=O)NCCS(=O)(=O)N2CCOCC2)cc1", "hERG current change (%, negative = inhibition) at 1uM": 10.3}, {"compound": "NC(=O)c1c(NC(=O)CN2CCOCC2)sc2c1CCC2", "hERG current change (%, negative = inhibition) at 1uM": 11}, {"compound": "Cc1ccsc1C(=O)N1CCCC(N(C)Cc2ccccc2)C1", "note": "(centres unmarked)", "hERG current change (%, negative = inhibition) at 1uM": 1.75}, {"compound": "C=CCn1c(=N)c(C(=O)NCCCOC)cc2c(=O)n3ccccc3nc21", "hERG current change (%, negative = inhibition) at 1uM": -22.3}, {"compound": "O=C(Cc1cccs1)NCc1ccncc1", "hERG current change (%, negative = inhibition) at 1uM": 3.43}, {"compound": "CCCN(CCC)CCNC(=O)C1CC(=O)N(c2ccc(OC)cc2)C1c1ccc(OC)cc1", "note": "(centres unmarked)", "hERG current change (%, negative = inhibition) at 1uM": -18.1}, {"compound": "COc1ccc(N(CC(=O)NCc2cccnc2)S(=O)(=O)c2c(C)nn(C)c2C)cc1", "hERG current change (%, negative = inhibition) at 1uM": 16.5}, {"compound": "CCOC(=O)N1CCN(C(=O)CCNS(=O)(=O)c2ccccc2)CC1", "hERG current change (%, negative = inhibition) at 1uM": 10.9}, {"compound": "O=C(Cc1ccc(N2CCNC2=O)cc1)N1CCCC(Nc2cccc(F)c2)C1", "note": "(centres unmarked)", "hERG current change (%, negative = inhibition) at 1uM": 11.6}, {"compound": "Cc1oc(-c2ccc(Cl)cc2)nc1CS(=O)CC(=O)NC1CC1", "note": "(centres unmarked)", "hERG current change (%, negative = inhibition) at 1uM": 14.6}, {"compound": "O=C(O)c1cc(S(=O)(=O)N(Cc2ccccc2)c2cccc(C(F)(F)F)c2)ccc1Cl", "hERG current change (%, negative = inhibition) at 1uM": 13.9}, {"compound": "CC(C)C[C@@H](CO)N1CCN(Cc2ccc(Br)cc2)CCC1=O", "hERG current change (%, negative = inhibition) at 1uM": 4.05}, {"compound": "COc1ccc([C@H]2/C=C\\CN(S(=O)(=O)c3cccc4cccnc34)[C@@H](C)C(=O)N2Cc2ccc(F)cc2)cc1", "hERG current change (%, negative = inhibition) at 1uM": 5.13}, {"compound": "O=C(NC(O)C(=O)c1ccccc1)c1cccs1", "note": "(centres unmarked)", "hERG current change (%, negative = inhibition) at 1uM": 12.3}]}]}
